# Test results reported in the supplement of paper PMC8728848.
# The list shows a part of the results.
# B1: CBM40 CPF071 (Clostridium perfringens) (protein)
# chain: MAHHHHHHVGTGSNDDDDKSPDPMLSSLGEYKDINLESSNASNITYDLEKYKNLDEGTIVVRFNSKDSKIQSLLGISNSKTKNGYFNFYVTNSRVGFELRNQKNEGNTQNGTENLVHMYKDVALNDGDNTVALKIEKNKGYKLFLNGKMIKEVKDTNTKFLNNIENLDSAFIGKTNRYGQSNEYNFKGNIGFMNIYNEPLGDDYLLSKTGETK
# Columns and labels:
# Experiment in all cases: glycan array binding signal (z-score within array); higher = stronger binding
# Details in all cases: glycan notation: IUPAC condensed, linker removed
# [1] = target: GlcNAc(b1-2)Gal(b1-3)GalNAc
# How it was run: (§1)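 The binding signal is a Z-score computed within each array and averaged over linkers. Arrays of the same protein sequence at different concentrations or buffers were also averaged together. Data originate from 3228 arrays in the Consortium for Functional Glycomics database, kept only where the protein sequence was available.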
# [2] = target: GlcNAc(b1-2)Man(a1-3)[GlcNAc(b1-2)Man(a1-6)]Man(b1-4)GlcNAc(b1-4)GlcNAc
# How it was run: as §1
# [3] = target: GlcNAc(b1-2)Man(a1-3)[GlcNAc(b1-2)Man(a1-6)]Man(b1-4)GlcNAc(b1-4)[Fuc(a1-6)]GlcNAc
# How it was run: as §1
# [4] = target: GlcNAc(b1-2)Man(a1-3)[GlcNAc(b1-4)][GlcNAc(b1-2)Man(a1-6)]Man(b1-4)GlcNAc(b1-4)GlcNAc
# How it was run: as §1
# [5] = target: GlcNAc(b1-2)Man(a1-3)[GlcNAc(b1-4)][GlcNAc(b1-2)Man(a1-6)]Man(b1-4)GlcNAc(b1-4)[Fuc(a1-6)]GlcNAc
# How it was run: as §1
# [6] = target: GlcNAc(b1-2)[GlcNAc(b1-4)]Man(a1-3)[GlcNAc(b1-2)Man(a1-6)]Man(b1-4)GlcNAc(b1-4)GlcNAc
# How it was run: as §1
# [7] = target: GlcNAc(b1-2)[GlcNAc(b1-4)]Man(a1-3)[GlcNAc(b1-4)][GlcNAc(b1-2)Man(a1-6)]Man(b1-4)GlcNAc(b1-4)GlcNAc
# How it was run: as §1
# [8] = target: GlcNAc(b1-2)[GlcNAc(b1-4)]Man(a1-3)[GlcNAc(b1-4)][GlcNAc(b1-2)[GlcNAc(b1-6)]Man(a1-6)]Man(b1-4)GlcNAc(b1-4)GlcNAc
# How it was run: as §1
# [9] = target: GlcNAc(b1-2)[GlcNAc(b1-4)]Man(a1-3)[GlcNAc(b1-4)][GlcNAc(b1-2)[GlcNAc(b1-6)]Man(a1-6)]Man(b1-4)GlcNAc(b1-4)[Fuc(a1-6)]GlcNAc
# How it was run: as §1
# [10] = target: GlcNAc(b1-2)[GlcNAc(b1-6)]Man(a1-6)[GlcNAc(b1-2)Man(a1-3)]Man(b1-4)GlcNAc(b1-4)GlcNAc
# How it was run: as §1
# [11] = target: GlcNAc(b1-2)[GlcNAc(b1-6)]Man(a1-6)[GlcNAc(b1-2)Man(a1-3)]Man(b1-4)GlcNAc(b1-4)[Fuc(a1-6)]GlcNAc
# How it was run: as §1
# [12] = target: GlcNAc(b1-2)[GlcNAc(b1-6)]Man(a1-6)[GlcNAc(b1-4)][GlcNAc(b1-2)Man(a1-3)]Man(b1-4)GlcNAc(b1-4)GlcNAc
# How it was run: as §1
# [13] = target: GlcNAc(b1-3)Fuc
# How it was run: as §1
# [14] = target: GlcNAc(b1-3)Gal
# How it was run: as §1
# [15] = target: GlcNAc(b1-3)Gal(b1-3)GalNAc
# How it was run: as §1
# [16] = target: GlcNAc(b1-3)Gal(b1-4)Glc
# How it was run: as §1
# [17] = target: GlcNAc(b1-3)Gal(b1-4)GlcNAc
# How it was run: as §1
# [18] = target: GlcNAc(b1-3)Gal(b1-4)GlcNAc(b1-2)Man(a1-3)[GlcNAc(b1-3)Gal(b1-4)GlcNAc(b1-2)Man(a1-6)]Man(b1-4)GlcNAc(b1-4)GlcNAc
# How it was run: as §1
# [19] = target: GlcNAc(b1-3)Gal(b1-4)GlcNAc(b1-2)Man(a1-3)[GlcNAc(b1-3)Gal(b1-4)GlcNAc(b1-2)Man(a1-6)]Man(b1-4)GlcNAc(b1-4)[Fuc(a1-6)]GlcNAc
# How it was run: as §1
# [20] = target: GlcNAc(b1-3)Gal(b1-4)GlcNAc(b1-2)[GlcNAc(b1-3)Gal(b1-4)GlcNAc(b1-6)]Man(a1-6)[GlcNAc(b1-3)Gal(b1-4)GlcNAc(b1-2)Man(a1-3)]Man(b1-4)GlcNAc(b1-4)GlcNAc
# How it was run: as §1
# [21] = target: GlcNAc(b1-3)Gal(b1-4)GlcNAc(b1-3)Gal(b1-4)GlcNAc
# How it was run: as §1
# [22] = target: GlcNAc(b1-3)Gal(b1-4)GlcNAc(b1-3)Gal(b1-4)GlcNAc(b1-2)Man(a1-3)[GlcNAc(b1-3)Gal(b1-4)GlcNAc(b1-3)Gal(b1-4)GlcNAc(b1-2)Man(a1-6)]Man(b1-4)GlcNAc(b1-4)GlcNAc
# How it was run: as §1
binder,measurement,setting,value
B1,glycan array binding signal (z-score),[1],-0.332
same,glycan array binding signal (z-score),[2],0.203
same,glycan array binding signal (z-score),[3],0.113
same,glycan array binding signal (z-score),[4],-0.468
same,glycan array binding signal (z-score),[5],-0.144
same,glycan array binding signal (z-score),[6],-0.358
same,glycan array binding signal (z-score),[7],-0.53
same,glycan array binding signal (z-score),[8],-0.569
same,glycan array binding signal (z-score),[9],-0.562
same,glycan array binding signal (z-score),[10],-0.153
same,glycan array binding signal (z-score),[11],-0.247
same,glycan array binding signal (z-score),[12],-0.41
same,glycan array binding signal (z-score),[13],0.034
same,glycan array binding signal (z-score),[14],-0.156
same,glycan array binding signal (z-score),[15],-0.288
same,glycan array binding signal (z-score),[16],-0.407
same,glycan array binding signal (z-score),[17],-0.539
same,glycan array binding signal (z-score),[18],0.071
same,glycan array binding signal (z-score),[19],-0.08
same,glycan array binding signal (z-score),[20],0.061
same,glycan array binding signal (z-score),[21],-0.473
same,glycan array binding signal (z-score),[22],0.03
